Test results published in US10954277B2, “Materials and methods for treating cancer” (Mayo Foundation for Medical Education and Research, priority 2016, dated 2021).

Assays:
pERK1/2 [1] = test: Western blot analysis of pERK1/2 in cancer cell lines
FOXO1 [2] = test: Immunofluorescent cytochemistry of FOXO1 cellular localization; assay type: cell-based, human
Procedure: A) Western blot analysis of IQGAP1 protein expression in prostate cancer cell lines LNCaP, C4-2 and C4-2B. ERK2 was used as loading control. The density of IQGAP1 was determined by normalizing to ERK2 first and then to the normalized value in LNCaP cells.
Briefly, cells were rinsed in PBS, fixed in 4% paraformaldehyde for 15 minutes and washed in PBS three times. Fixed cells were permeabilized with 0.2% Triton X-100 for 20 minutes, washed in PBS and then blocked in PBS supplemented with 5% goat serum and 10% glycerol. Cells were incubated with indicated primary antibody at 4° C. overnight. Cells were washed three times with PBS and incubated with secondary antibody that was conjugated with Alexa Fluor 488 (Thermo Fisher Scientific) for 1 hour at room temperature. After the final wash, cells were counterstained with Vectashield (Vector Laboratories) containing DAPI (4′, 6-diamidino-2-phenylindole). Images were captured using Zeiss laser confocal microscope (LSM780).

p27KIP1 = test: Western blot analysis of p27KIP1 in cancer cell lines; assay type: cell-based, human
Excerpt: (§1) Short exp., short exposure.

pAKT = test: Western blot analysis of pAKT in cancer cell lines; assay type: cell-based, human
FOXO1 [3] = test: Western blot analysis of FOXO1 phosphorylation at T24 and S256; assay type: cell-based, human; settings: LNCaP and BT474 cells, paclitaxel 10 nM 24 hours
LNCaP cells = test: MTS cell viability assay in LNCaP cells; assay type: cell-based, human; settings: MK2206 treatment alone, 0.5 μM
pERK1/2 [4] = test: Immunofluorescent histochemistry of p-ERK in PC-3 mouse xenografts; settings: PC-3 xenografts in mice, DTX 5 mg/kg intravenous twice a week
PC-3-Luc xenografts = test: PC-3-Luc prostate cancer xenografts in NSG mice, luminescent imaging; assay type: in vivo; settings: DTX 5 mg/kg intravenous twice a week, empty vector xenografts
Excerpt: as §1
The animal study was approved by IACUC.

PC-3-Luc cells = test: MTS assay in PC-3-Luc cells; assay type: cell-based, human; settings: DTX 10 nM alone
Procedure: Cell growth was measured by absorbance using the MTS assay according to manufacturer's instructions (Promega). Cells were plated in 96-well plates at a density of 1,000 cells per well. At the indicated time points, 20 μl of CellTiter 96R AQueous One Solution reagent (Promega) was added to cells; after incubating for 60 minutes at 37° C., cell growth was measured in a microplate reader at 490 nm.

[5] = LNCaP and BT474 cells, paclitaxel 10 nM 24 hours
[6] = LNCaP cells, 24 hours, MK2206 0.5 μM or NVP-BEZ235 50 nM
[7] = C4-2B cells, 24 hours, MK2206 0.5 μM or NVP-BEZ235 50 nM
[8] = C4-2 cells, 24 hours, MK2206 0.5 μM or NVP-BEZ235 50 nM

epidermal growth factor: growth factor used to induce pERK1/2 in C4-2 cells (NSDSECPLSHDGYCLHDGVCMYIEALDKYACNCVVGYIGERCQYRDLKWWELR; Epidermal growth factor; UniProt P01133 971-1023, looked up)
pERK1/2 (pERK1/2 [1]; C4-2 cells, 10 ng/mL for 10 minutes): induced pERK1/2

CC(=O)O[C@H]1C(=O)[C@@]2(C)[C@H]([C@H](OC(=O)c3ccccc3)[C@]3(O)C[C@H](OC(=O)[C@H](O)[C@@H](NC(=O)c4ccccc4)c4ccccc4)C(C)=C1C3(C)C)[C@]1(OC(C)=O)CO[C@@H]1C[C@@H]2O [paclitaxel]
nuclear localization of FOXO1 (FOXO1 [2]; [5]): nuclear localization of FOXO1
p27KIP1 (p27KIP1; [5]): transactivation of p27KIP1
pAKT (pAKT; [5]): induced inhibition of pAKT
pERK1/2 (pERK1/2 [1]; [5]): increase in pERK1/2
phosphorylation of the 14-3-3 binding sites (T24 and S256) of FOXO1 (FOXO1 [3]): decreased phosphorylation

NC1(c2ccc(-c3nc4ccn5c(=O)[nH]nc5c4cc3-c3ccccc3)cc2)CCC1 [MK2206]
nuclear localization of FOXO1 (FOXO1 [2]; [6]): induced nuclear localization of FOXO1
pAKT (pAKT; LNCaP, C4-2 and C4-2B cells, MK2206 0.5 μM, 24 hours): inhibition of pAKT
pERK1/2 (pERK1/2 [1]; [7]): increased pERK1/2
pERK1/2 (pERK1/2 [1]; [8]): increased pERK1/2
pERK1/2 (pERK1/2 [1]; [6]): increased pERK1/2
LNCaP cell growth (LNCaP cells): only transiently decreased LNCaP cell growth

C[C@@H]1C[C@@H]([C@H](O)CC2CC(=O)NC(=O)C2)C(=O)[C@@H](C)C1 [cycloheximide]
FOXO1 nuclear localization (FOXO1 [2]; LNCaP cells, CHX treatment alone (20 μg/ml, 24 hours)): No effect
induction of p27KIP1 (p27KIP1; LNCaP cells, CHX 20 μg/ml with or without MK2206): blockage of induction of p27KIP1
reduction in MK2206-induced pERK1/2 (pERK1/2 [1]; LNCaP cells, CHX 20 μg/ml 30 minutes pre-treatment, then MK2206 0.5 μM 24 hours): approximately 50%
pERK1/2 (pERK1/2 [1]; LNCaP cells, CHX treatment alone (20 μg/ml)): No effect

CC(=O)O[C@@]12CO[C@@H]1C[C@H](O)[C@@]1(C)C(=O)[C@H](O)C3=C(C)[C@@H](OC(=O)[C@H](O)[C@@H](NC(=O)OC(C)(C)C)c4ccccc4)C[C@@](O)([C@@H](OC(=O)c4ccccc4)[C@H]21)C3(C)C [DTX, docetaxel]
pERK1/2 (pERK1/2 [4]): increased pERK1/2
tumor growth in vivo (PC-3-Luc xenografts): failed to completely block tumor growth
tumor growth in vitro (PC-3-Luc cells): failed to completely block tumor growth

Cn1c(=O)n(-c2ccc(C(C)(C)C#N)cc2)c2c3cc(-c4cnc5ccccc5c4)ccc3ncc21 [NVP-BEZ235]
nuclear localization of FOXO1 (FOXO1 [2]; [6]): induced nuclear localization of FOXO1
pERK1/2 (pERK1/2 [1]; [7]): almost none
pERK1/2 (pERK1/2 [1]; [8]): very limited
